Laboratory results reported in PubChem BioAssay AID1347165 (National Center for Advancing Translational Sciences (NCATS), 2019).
About 5,700 (2.6%) of roughly 220,000 compounds were called active. The inconclusive results got no clear call from the source; some entries with a clear call stand among them for comparison. Calls follow the shape of the dose curve; as a rule, active = well fitted inhibition curve with a large enough effect; inconclusive = small, poorly fitted or top-dose-only effect; inactive = no such curve, though single readings can be large or run the other way. A potency beside an inconclusive call is a rough fit, not a confirmed value.

What follows are molecules tested against Lysine-specific demethylase 5B (Homo sapiens) (UniProt Q9UGL1) (assay: Primary screen for KDM5B Histone Demethylases FDH-coupled qHTS). Conditions: FDH-coupled NADH fluorescence (FDH is formaldehyde dehydrogenase); series mostly up to 57.7 µM.
Sequence of UniProt Q9UGL1 (Q9UGL1 whole entry, looked up, the tested form may be a part): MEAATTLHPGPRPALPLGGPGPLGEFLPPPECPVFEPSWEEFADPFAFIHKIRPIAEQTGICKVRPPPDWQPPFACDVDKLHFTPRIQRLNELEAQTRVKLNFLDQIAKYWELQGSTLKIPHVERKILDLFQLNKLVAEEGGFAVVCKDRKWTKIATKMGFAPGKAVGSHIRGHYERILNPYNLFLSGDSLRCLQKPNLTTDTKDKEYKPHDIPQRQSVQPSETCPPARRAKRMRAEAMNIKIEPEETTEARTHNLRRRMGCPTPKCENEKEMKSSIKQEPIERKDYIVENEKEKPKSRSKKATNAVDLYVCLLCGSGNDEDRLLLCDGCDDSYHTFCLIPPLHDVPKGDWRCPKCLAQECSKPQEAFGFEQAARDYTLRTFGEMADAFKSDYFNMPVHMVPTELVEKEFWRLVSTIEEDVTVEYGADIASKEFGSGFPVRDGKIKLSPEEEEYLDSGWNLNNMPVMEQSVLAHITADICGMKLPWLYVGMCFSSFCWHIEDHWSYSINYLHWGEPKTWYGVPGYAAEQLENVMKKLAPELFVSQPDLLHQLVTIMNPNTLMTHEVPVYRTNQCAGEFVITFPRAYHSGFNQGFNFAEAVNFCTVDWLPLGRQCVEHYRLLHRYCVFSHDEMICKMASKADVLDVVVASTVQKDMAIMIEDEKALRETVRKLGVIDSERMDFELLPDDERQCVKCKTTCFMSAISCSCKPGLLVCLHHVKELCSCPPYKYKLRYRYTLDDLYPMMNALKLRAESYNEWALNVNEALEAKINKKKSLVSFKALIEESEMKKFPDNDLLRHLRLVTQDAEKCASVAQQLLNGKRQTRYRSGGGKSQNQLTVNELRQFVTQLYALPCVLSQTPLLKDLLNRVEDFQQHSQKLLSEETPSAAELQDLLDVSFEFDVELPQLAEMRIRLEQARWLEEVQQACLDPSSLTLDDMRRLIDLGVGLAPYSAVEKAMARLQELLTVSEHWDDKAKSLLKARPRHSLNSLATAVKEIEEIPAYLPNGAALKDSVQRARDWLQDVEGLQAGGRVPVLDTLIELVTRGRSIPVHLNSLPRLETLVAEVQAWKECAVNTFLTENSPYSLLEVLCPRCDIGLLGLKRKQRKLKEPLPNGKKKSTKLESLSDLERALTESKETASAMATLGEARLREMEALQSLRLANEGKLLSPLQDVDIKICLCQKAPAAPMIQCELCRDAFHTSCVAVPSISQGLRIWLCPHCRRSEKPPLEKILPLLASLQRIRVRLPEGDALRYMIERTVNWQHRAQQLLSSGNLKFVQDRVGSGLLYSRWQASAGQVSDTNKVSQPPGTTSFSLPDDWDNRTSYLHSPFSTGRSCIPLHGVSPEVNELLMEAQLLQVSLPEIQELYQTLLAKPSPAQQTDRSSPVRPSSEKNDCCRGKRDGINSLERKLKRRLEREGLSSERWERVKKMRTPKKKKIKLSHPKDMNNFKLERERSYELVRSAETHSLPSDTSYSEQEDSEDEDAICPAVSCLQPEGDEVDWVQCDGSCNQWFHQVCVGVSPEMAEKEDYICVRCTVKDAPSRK
Summary of the method: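 Inhibition is measured as reduced NADH fluorescence generation from FDH coupling to formaldehyde release. Truncated KDM5BΔAP at 200 nM final acts on H3K4me3 peptide (12.5 µM in substrate mix) in pH 7.5 HEPES buffer with Tween-20, 30 min, room temperature.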
Also: nearly all actives have a fitted effect of over 70% in size.
Potency is read from the fitted curve at half-maximal effect; tags tell the direction and shape of the fitted curve.

SMILES | Potency
CC(C)(C)c1ccccc1NC(=O)CSc1nc(-c2cccs2)cc(C(F)(F)F)n1 | inconclusive: 14.1 µM [inhibitor, partial curve, poor fit]
Cc1cc2c(-c3cccc(OC(C)C)c3)nc(-c3c(C)noc3C)cc2[nH]1 | active: 15.8 µM
COCCOCC1(CNCc2nccn2C)C[C@@H](O)[C@@H](O)C1 (stereo partly drawn) | inconclusive: 28.2 µM [inhibitor, single point]
Cc1ccc(C(=O)N2CCCN(c3cc(-c4ccc(C)c(C)c4)[nH]n3)CC2)cc1C | inconclusive: 20 µM [inhibitor, partial curve, poor fit]
O=C(NC(Cc1ccccc1)C(=O)N1CCN(c2ncccn2)CC1)c1cccs1 (stereo not drawn) | inactive
O=C(Nc1cccc(Cl)c1Cl)c1cc(S(=O)(=O)NCCc2ccccc2)ccc1F | inconclusive: 25.1 µM [inhibitor, single point]
CC(=O)Nc1ccc(CN2CCN(Cc3ccccc3)C(CCO)C2)cc1 (stereo not drawn) | inconclusive: 10 µM [inhibitor, partial curve]
CN1C(=O)CC[C@]2(C(=O)NCc3cc(F)cc(F)c3)CCCC[C@@H]12 | inactive
COCc1ccc2c(c1)c(OC(C)(C)C(N)=O)nn2Cc1cccc(OC)c1 | inconclusive: 35.5 µM [inhibitor, single point]
COc1ccccc1C(=O)Nc1cccc(C(=O)OCc2cc(=O)n3nc(C)sc3n2)c1 | inactive
O=C(NCCN1CCOCC1)c1nn(Cc2ccccc2)c(=O)c2ccccc12 | inactive
COc1ccc(C2(C(=O)N3CCC(c4n[nH]c(=O)n4-c4ccccc4)CC3)CC2)cc1 | inactive
Cc1ccc(-c2nnc(Nc3ccccc3)c3ccccc23)cc1S(=O)(=O)NCc1nc2ccccc2[nH]1 | inconclusive: 39.8 µM [inhibitor, partial curve, poor fit]
O=C(NC1CC1)C(Sc1ccc2c(c1)OCCCO2)c1ccc(F)cc1 (stereo not drawn) | inactive
CCCNc1cc(N2CCC(CCC(=O)NCc3cccc(OC)c3)CC2)ncn1 | inactive
Cc1noc2c(NCc3ccccc3)cc(-c3cccnc3)nc12 | inactive
Cc1cc(F)ccc1NC(=O)Cn1c(C)cc2nc3n(c(=O)c21)CCCCC3 | inactive
O=C1NCc2cc(-c3cc4c(ccn4Cc4ccncc4)c(N4CCOCC4)n3)ccc21 | active: 31.6 µM
C=Cc1ccc(COc2ccc3oc(-c4ccccc4)c(C(=O)OCC)c3c2)cc1 | inconclusive: 25.1 µM [inhibitor, partial curve, poor fit]
CCCn1nc(C(=O)NCC(c2ccc(OC)cc2)N(C)C)c2ccccc2c1=O (stereo not drawn) | inactive
COc1cccc(CNC(=O)CSC2=Nc3ccccc3C3=NC(C(C)C)C(=O)N23)c1 (stereo not drawn) | inconclusive: 25.1 µM [inhibitor, partial curve, poor fit]

SMILES | Potency
CCCOc1ccc(-c2nc(N3CCN(C)CC3)c3ccccc3n2)cc1 | inconclusive: 35.5 µM [inhibitor, partial curve, poor fit]
C[C@H](O)[C@@H]1CN2CCc3c([nH]c4c(-c5ccc6c(c5)OCO6)cccc34)[C@@H]2C[C@@H]1N(C)C(=O)NC1CCCCC1 | inconclusive: 17.8 µM [inhibitor, partial curve, poor fit]
c1ccc(-c2ccc(CN3CCOC[C@H](Oc4cnccn4)C3)cc2)cc1 | inconclusive: 31.6 µM [inhibitor, partial curve, poor fit]
CCOc1ccc(-c2cc(C)n3nc(C(=O)Nc4ccc(C)c(C)c4)cc3n2)cc1 | inconclusive: 14.1 µM [inhibitor, partial curve, poor fit]
O=C(CS(=O)(=O)c1ccccc1)Nc1nnc(Cc2ccccc2)s1 | inconclusive: 2.82 µM [inhibitor, full curve, poor fit]
N#Cc1c(N)c(-c2ccccc2)c(F)c2ccccc12 | inconclusive: 39.8 µM [inhibitor, single point]
CCc1ccc(N2CC(C)Cn3c2nc2c3c(=O)n(CC(=O)O)c(=O)n2C)cc1 (stereo not drawn) | inconclusive: 28.2 µM [inhibitor, partial curve, poor fit]
COC(=O)Cc1c(C)nc2nc(NCc3ccc(Br)cc3)[nH]n2c1=O | inconclusive: 25.1 µM [inhibitor, partial curve, poor fit]
COc1ccccc1-c1ccc2ncc(Nc3cccc(N[S+](C)(=O)[O-])c3)n2n1 | inconclusive: 44.7 µM [inhibitor, single point]
CC(C)CNc1ccc2nncn2n1 | inconclusive: 20 µM [inhibitor, partial curve, poor fit]
COc1ccc(-c2ccc(CCC(=O)O)n2-c2ccccc2C(F)(F)F)cc1 | inconclusive: 14.1 µM [inhibitor, partial curve, poor fit]
Cn1ncc2c(-c3ccc([S+](C)(=O)[O-])cc3)cc(C(=O)N3CCCC3)nc21 | inconclusive: 56.2 µM [inhibitor, partial curve, poor fit]
COc1ccc([N+](=O)[O-])c(S(=O)(=O)c2ccc(Cl)cc2)n1 | inconclusive: 4.47 µM [inhibitor, full curve, poor fit]
O=C(NCC1CCN(c2cc(-c3ccccc3)[nH]n2)CC1)c1ccc[nH]c1=O | active: 31.6 µM
N#CCCCOC(=O)c1cc(-c2cccs2)nc2ccccc12 | inconclusive: 25.1 µM [inhibitor, partial curve, poor fit]
N#C/C(=C\c1cccc(F)c1)c1nc(-c2cc3ccccc3oc2=O)cs1 | inconclusive: 0.794 µM [inhibitor, partial curve, poor fit]
O=C1NNC(c2ccccc2)=N/C1=C\c1ccco1 | inconclusive: 35.5 µM [inhibitor, single point]
Cc1ccc2c(c1)c1c(c(=O)n(Cc3ccccc3)c(=O)n1Cc1cccc(F)c1)n2C | inconclusive: 2.82 µM [inhibitor, partial curve, poor fit]
O=C(NCc1cccs1)c1ccc2c(c1)N(Cc1ccccc1)C(=O)CS2=O (stereo not drawn) | inactive
COC(=O)[C@@H]1Cc2c([nH]c3ccccc23)[C@H]2C[C@@H](NCCN3CCOCC3)C[C@@H](c3ccccc3F)N21 | active: 17.8 µM
CC(=O)Nc1ccc(S(=O)(=O)N[C@H]2CO[C@H]3[C@@H]2OC[C@@H]3Nc2nccc(-c3cccs3)n2)cc1 | active: 25.1 µM

SMILES | Potency
COc1ccc(CNc2ncnc3c2CN(C2CCNCC2)C(=O)CN3C)cc1OC | inconclusive: 50.1 µM [inhibitor, partial curve]
Cc1cccc2ncc(C(=O)NCc3cc4n(n3)CCCNC4)c(=O)n12 | active: 28.2 µM
Cc1cccc(CNC(=O)c2ccc(Cn3c(SCc4cccc(F)c4)nc4cccnc43)cc2)c1 | inconclusive: 17.8 µM [inhibitor, partial curve, poor fit]
Cc1cc(NC(=O)N2CCSc3ncccc32)ccc1Br | inconclusive: 20 µM [inhibitor, partial curve, poor fit]
COc1ccccc1C(NC(=O)c1nc(-c2ccco2)sc1C)c1nccn1C (stereo not drawn) | inconclusive: 28.2 µM [inhibitor, partial curve, poor fit]
O=C(N[C@@H]1CN(Cc2ccccc2)C[C@H]1CO)c1ccnnc1 | inactive
CCOc1ccc(-n2cc(-c3ccccc3)c3c(NCc4ccccc4)ncnc32)cc1 | inconclusive: 35.5 µM [inhibitor, partial curve, poor fit]
Cc1ccc(-c2cc(N3CCCN(C(=O)c4ccccc4C)CC3)n[nH]2)cc1C | inconclusive: 15.8 µM [inhibitor, partial curve]
CCOc1ccccc1NC(=O)Cn1c(N2CCOCC2)nc(COC)cc1=O | inconclusive: 5.62 µM [inhibitor, partial curve]
COc1cccc(CC(=O)N2CCC3(CC2)N=C(c2ccc(Cl)cc2)NO3)c1 | inconclusive: 28.2 µM [inhibitor, partial curve]
COc1ccc(Cc2nnc3n2N(C(C)=O)C(c2ccccc2)=C(C(C)=O)S3)cc1 | inactive
Cc1nn(C)c(C)c1CCNC(=O)CCC[C@H]1NC[C@@H]2C[C@H]1CN(Cc1ccccc1)C2 | inconclusive: 25.1 µM [inhibitor, partial curve, poor fit]
CC(=O)NC1(C)CCN(Cc2ccc(Nc3ccc(N4CCOCC4)c(F)c3)cc2)C1 (stereo not drawn) | inactive
COc1cccc(C2C3=C(CC(C)(C)CC3=O)Nc3cc4c(cc32)OCO4)c1OC (stereo not drawn) | inconclusive: 22.4 µM [inhibitor, partial curve, poor fit]
CCOC(=O)c1cc2c(=O)n3ccccc3nc2n(CC2CCCO2)c1=NC(=O)c1ccccc1OCC (stereo not drawn) | inactive
CCOc1ccc(CC(=O)N2CCN(c3cc(-c4cccs4)[nH]n3)CC2)cc1OCC | inconclusive: 25.1 µM [inhibitor, partial curve, poor fit]
CN(C)c1cccc(NC(=O)C2=NO[C@@H]3CN(Cc4ccc(F)cc4)C[C@H]23)c1 | inconclusive: 39.8 µM [inhibitor, single point]
COC(=O)CNC(=O)c1ccc2nccn2c1 | active: 112 µM
O=C(Cc1c[nH]c2ccccc12)N1CCCC2(C1)Nc1cccnc1NC2=NC1CCCC1 (stereo not drawn) | inconclusive: 31.6 µM [inhibitor, partial curve, poor fit]
COCCN1Cc2ccc(NCC(C)C)nc2C(C)(C(=O)Nc2ccccc2)C1 (stereo not drawn) | inconclusive: 31.6 µM [inhibitor, single point]
CCN(CC)c1ccc(NC(=O)Cn2cc3c(n2)CCCC3)c(C)c1 | inconclusive: 39.8 µM [inhibitor, single point]
